The values that follow come from the supplement of paper PMC4604168 (melanoma cell lines).

Holding throughout (assay): cell count relative to DMSO control; melanoma cells; higher = more viable cells
Holding throughout (settings): library dose: low library concentration; 72 h

The subject of experiment [1] is WM115.
In experiment [2] the test system is WM1716.
Experiment [3] has as its system WM1745.
Experiment [4] deals with WM3526.
The subject of experiment [5] is WM3619.
The test system of experiment [6] is WM451Lu.

Each structure is given as a SMILES string. The list shows a part of the results. Many values rest on one well or one pass, so single values are uncertain.
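Note: cell number obtained by counting DAPI-stained nuclei in high-throughput microscope images with image analysis software, screen run in 1,536-well plates.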

As to `CN(c1ncccc1CNc1nc(Nc2ccc3c(c2)CC(=O)N3)ncc1C(F)(F)F)S(C)(=O)=O` + C=C(c1ccc(C(=O)O)cc1)c1cc2c(cc1C)C(C)(C)CCC2(C)C [Bexarotene] (first compound 0.08 µM, partner dose 2 µM), the cell count amounted to 79.8% in experiment [1]; 77.8% in experiment [2]; 75.7% in experiment [3]; 77.9% in experiment [4]; 108% in experiment [5]; 66.7% in experiment [6].
Take `CS(=O)(=O)c1ccc(C(=O)Nc2ccc(Cl)c(-c3ccccn3)c2)c(Cl)c1` [vismodegib] + Cc1cc(N2CCOCC2)cc2[nH]c(-c3c(NC[C@@H](O)c4cccc(Cl)c4)cc[nH]c3=O)nc12 [BMS536924] (first compound 1 µM, partner dose 0.2 µM): the cell count in experiment [1] was found to be 98.8%; in experiment [2], 99.2%; in experiment [3], 74.8%; in experiment [4] it was 95.6%; in experiment [5] it was 104%; in experiment [6], 93.4%.
Take `CS(=O)(=O)c1ccc(C(=O)Nc2ccc(Cl)c(-c3ccccn3)c2)c(Cl)c1` [vismodegib] + C[C@]1(c2nc3c(C(N)=O)cccc3[nH]2)CCCN1 [Veliparib] (first compound 1 µM, partner dose 1.4 µM): the cell count in experiment [1] was 84.9%; in experiment [2], 94.3%; in experiment [3], 98.8%; in experiment [4] it was 106%; in experiment [5] it was 111%; in experiment [6], 112%.
On to `CN(c1ncccc1CNc1nc(Nc2ccc3c(c2)CC(=O)N3)ncc1C(F)(F)F)S(C)(=O)=O` + Cc1cc([N+](=O)[O-])ccc1NS(=O)(=O)c1cc(Cl)ccc1Cl [FH535] (first compound 0.08 µM, partner dose 1 µM), for which the cell count stood at 72% in experiment [1]; 68.4% in experiment [2]; 75.6% in experiment [3]; 79.4% in experiment [4]; 94.6% in experiment [5]; 72.7% in experiment [6].
In the case of `CN(c1ncccc1CNc1nc(Nc2ccc3c(c2)CC(=O)N3)ncc1C(F)(F)F)S(C)(=O)=O` + Oc1nc(-c2ccc(C(F)(F)F)cc2)nc2c1CSCC2 [XAV939] (first compound 0.08 µM, partner dose 2 µM), the cell count in experiment [1] stood at 71.8%; in experiment [2], 61.5%; in experiment [3] it was 72.7%; in experiment [4], 76%; in experiment [5], 101%; in experiment [6] it was 74.6%.
Take `CS(=O)(=O)c1ccc(C(=O)Nc2ccc(Cl)c(-c3ccccn3)c2)c(Cl)c1` [vismodegib] + CC(=O)O[C@@]12CO[C@@H]1C[C@H](O)[C@@]1(C)C(=O)[C@H](O)C3=C(C)[C@@H](OC(=O)[C@H](O)[C@@H](NC(=O)OC(C)(C)C)c4ccccc4)C[C@@](O)([C@@H](OC(=O)c4ccccc4)[C@H]21)C3(C)C [Docetaxel] (first compound 1 µM, partner dose 0.0001 µM): the cell count worked out at 70.5% in experiment [1]; 55.4% in experiment [2]; 59.7% in experiment [3]; 41.7% in experiment [4]; 80.1% in experiment [5]; 44% in experiment [6].
For the compound `NC1(c2ccc(-c3nc4ccn5c(=O)[nH]nc5c4cc3-c3ccccc3)cc2)CCC1` + Cn1c(Nc2ccc(C(F)(F)F)cc2)nc2cc(Oc3ccnc(-c4ncc(C(F)(F)F)[nH]4)c3)ccc21 [CHIR265] (first compound 0.4 µM, partner dose 0.08 µM), the cell count in experiment [1] worked out at 38.5%; in experiment [2] it was 76.6%; in experiment [3], 80.7%; in experiment [4], 51.4%; in experiment [5], 79.8%; in experiment [6], 89.4%.
Consider `C=C(c1ccc(C(=O)O)cc1)c1cc2c(cc1C)C(C)(C)CCC2(C)C` [Bexarotene] + COCC[n+]1c2c(n(Cc3cnccn3)c1C)C(=O)c1ccccc1C2=O [YM155] (first compound 2 µM, partner dose 0.0004 µM), for which the cell count in experiment [1] came to 115%; in experiment [2], 70.3%; in experiment [3] it was 101%; in experiment [4], 80.7%; in experiment [5], 107%; in experiment [6] it was 96.2%.
For the compound `C=C(c1ccc(C(=O)O)cc1)c1cc2c(cc1C)C(C)(C)CCC2(C)C` [Bexarotene] + C[C@@H]1CCN(C(=O)CC#N)C[C@@H]1N(C)c1ncnc2[nH]ccc12 [CP690550] (first compound 2 µM, partner dose 1 µM), the cell count in experiment [1] was determined as 93.9%; in experiment [2] it was 90.1%; in experiment [3], 89%; in experiment [4], 80.3%; in experiment [5], 126%; in experiment [6], 76.4%.
For the compound `C=C(c1ccc(C(=O)O)cc1)c1cc2c(cc1C)C(C)(C)CCC2(C)C` [Bexarotene] + OCCn1cc(-c2cnc3nnn(Cc4ccc5ncccc5c4)c3n2)cn1 [PF04217903] (first compound 2 µM, partner dose 1 µM), the cell count stood at 92.2% in experiment [1]; 84.7% in experiment [2]; 86.3% in experiment [3]; 91.1% in experiment [4]; 95.8% in experiment [5]; 93.9% in experiment [6].
As to `CS(=O)(=O)c1ccc(C(=O)Nc2ccc(Cl)c(-c3ccccn3)c2)c(Cl)c1` [vismodegib] + C=CCn1c(=O)c2cnc(Nc3ccc(N4CCN(C)CC4)cc3)nc2n1-c1cccc(C(C)(C)O)n1 [MK1775] (first compound 1 µM, partner dose 0.02 µM), the cell count came to 80.4% in experiment [1]; 83% in experiment [2]; 83% in experiment [3]; 91.5% in experiment [4]; 84.3% in experiment [5]; 83.9% in experiment [6].
Turning to `NC1(c2ccc(-c3nc4ccn5c(=O)[nH]nc5c4cc3-c3ccccc3)cc2)CCC1` + CCN(CC)CCCCNc1ncc2cc(-c3cc(OC)cc(OC)c3)c(NC(=O)NC(C)(C)C)nc2n1 [PD173074] (first compound 0.4 µM, partner dose 0.1 µM), the cell count was determined as 79.8% in experiment [1]; 86.8% in experiment [2]; 79.7% in experiment [3]; 53.3% in experiment [4]; 89.4% in experiment [5]; 92.2% in experiment [6].
`CCCS(=O)(=O)Nc1ccc(F)c(C(=O)c2c[nH]c3ncc(Cl)cc23)c1F` + COc1cc(N2CCC(N3CCN(C)CC3)CC2)ccc1Nc1ncc(Cl)c(Nc2ccccc2S(=O)(=O)C(C)C)n1 [NVP-TAE684] (first compound 0.08 µM, partner dose 0.08 µM): the cell count was determined as 95.3% in experiment [1]; 111% in experiment [2]; 99.6% in experiment [3]; 68.6% in experiment [4]; 107% in experiment [5]; 100% in experiment [6].
With `NC1(c2ccc(-c3nc4ccn5c(=O)[nH]nc5c4cc3-c3ccccc3)cc2)CCC1` + Oc1nc(-c2ccc(C(F)(F)F)cc2)nc2c1CSCC2 [XAV939] (first compound 0.4 µM, partner dose 2 µM), the cell count turned out to be 73.9% in experiment [1]; 93.4% in experiment [2]; 85.2% in experiment [3]; 102% in experiment [4]; 83.4% in experiment [5]; 97.6% in experiment [6].
On to `NC1(c2ccc(-c3nc4ccn5c(=O)[nH]nc5c4cc3-c3ccccc3)cc2)CCC1` + COc1ccc(-c2ccc3c(N4CCOCC4)nc(N4C[C@@H](C)O[C@@H](C)C4)nc3n2)cc1CO [KU0063794] (first compound 0.4 µM, partner dose 0.02 µM), for which the cell count is 69.8% in experiment [1]; 80.7% in experiment [2]; 84.8% in experiment [3]; 65.6% in experiment [4]; 74.7% in experiment [5]; 104% in experiment [6].
As for `NC1(c2ccc(-c3nc4ccn5c(=O)[nH]nc5c4cc3-c3ccccc3)cc2)CCC1` + Nc1cccc2c1CN(C1CCC(=O)NC1=O)C2=O [lenalidomide] (first compound 0.4 µM, partner dose 1 µM), the cell count was 95.5% in experiment [1]; 103% in experiment [2]; 90.8% in experiment [3]; 91.8% in experiment [4]; 90.3% in experiment [5]; 113% in experiment [6].
Take `CS(=O)(=O)c1ccc(C(=O)Nc2ccc(Cl)c(-c3ccccn3)c2)c(Cl)c1` [vismodegib] + CN(NC(=O)CC(=O)NN(C)C(=S)c1ccccc1)C(=S)c1ccccc1 [STA4783] (first compound 1 µM, partner dose 0.006 µM): the cell count in experiment [1] came out at 90%; in experiment [2], 82.3%; in experiment [3], 39.1%; in experiment [4], 108%; in experiment [5], 58.8%; in experiment [6], 121%.
Turning to `CS(=O)(=O)c1ccc(C(=O)Nc2ccc(Cl)c(-c3ccccn3)c2)c(Cl)c1` [vismodegib] + Oc1nc(-c2ccc(C(F)(F)F)cc2)nc2c1CSCC2 [XAV939] (first compound 1 µM, partner dose 2 µM), the cell count in experiment [1] came out at 89.2%; in experiment [2], 59.8%; in experiment [3], 82%; in experiment [4], 111%; in experiment [5], 95.1%; in experiment [6] it was 98.1%.
As to `CN(c1ncccc1CNc1nc(Nc2ccc3c(c2)CC(=O)N3)ncc1C(F)(F)F)S(C)(=O)=O` + CCCS(=O)(=O)Nc1ccc(F)c(C(=O)c2c[nH]c3ncc(Cl)cc23)c1F [PLX4720] (first compound 0.08 µM, partner dose 0.08 µM), the cell count in experiment [1] came to 89%; in experiment [2], 96.2%; in experiment [3] it was 84.8%; in experiment [4], 92.2%; in experiment [5] it was 96.2%; in experiment [6], 92%.
